About 2,200 (0.71%) of roughly 310,000 compounds showed an effect of 50% or more. The effect is printed as a negative number. The list shows a part of the results.
Target: human ether-à-go-go-related gene (hERG) potassium channel (human, UniProt Q12809)
Experiment: primary screen, population patch clamp on CHO cells stably expressing hERG

Sequence of human ether-à-go-go-related gene (hERG) potassium channel (Q12809 whole entry, looked up): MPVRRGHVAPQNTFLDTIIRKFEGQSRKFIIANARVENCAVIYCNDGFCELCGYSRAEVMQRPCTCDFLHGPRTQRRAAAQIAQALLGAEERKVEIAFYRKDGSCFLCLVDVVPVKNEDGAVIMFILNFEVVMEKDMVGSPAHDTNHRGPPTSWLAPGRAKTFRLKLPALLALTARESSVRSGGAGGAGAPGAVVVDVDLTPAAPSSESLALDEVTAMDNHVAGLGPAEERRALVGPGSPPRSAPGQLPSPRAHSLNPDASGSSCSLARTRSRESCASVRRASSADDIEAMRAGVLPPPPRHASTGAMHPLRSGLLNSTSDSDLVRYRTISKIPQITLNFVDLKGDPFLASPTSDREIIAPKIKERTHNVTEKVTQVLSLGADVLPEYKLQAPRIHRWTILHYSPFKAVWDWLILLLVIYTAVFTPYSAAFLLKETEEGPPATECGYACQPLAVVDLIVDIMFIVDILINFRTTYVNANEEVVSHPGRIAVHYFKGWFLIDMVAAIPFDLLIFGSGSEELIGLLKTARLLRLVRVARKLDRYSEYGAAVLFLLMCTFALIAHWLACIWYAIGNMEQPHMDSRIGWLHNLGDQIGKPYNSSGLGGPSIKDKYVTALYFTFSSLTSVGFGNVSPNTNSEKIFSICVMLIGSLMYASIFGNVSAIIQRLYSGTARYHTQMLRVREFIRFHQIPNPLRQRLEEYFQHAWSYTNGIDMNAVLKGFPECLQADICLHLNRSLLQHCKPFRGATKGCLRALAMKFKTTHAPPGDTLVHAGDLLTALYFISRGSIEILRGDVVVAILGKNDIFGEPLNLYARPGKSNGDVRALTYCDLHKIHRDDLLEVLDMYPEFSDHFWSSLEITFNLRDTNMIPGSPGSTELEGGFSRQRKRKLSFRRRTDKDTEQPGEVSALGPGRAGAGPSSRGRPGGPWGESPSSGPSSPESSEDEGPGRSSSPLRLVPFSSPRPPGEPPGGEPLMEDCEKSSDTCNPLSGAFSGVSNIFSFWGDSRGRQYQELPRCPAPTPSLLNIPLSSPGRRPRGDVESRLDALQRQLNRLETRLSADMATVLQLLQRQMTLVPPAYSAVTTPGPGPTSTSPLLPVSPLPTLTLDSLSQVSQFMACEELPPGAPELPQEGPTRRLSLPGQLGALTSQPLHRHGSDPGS

| SMILES | hERG current change (%, negative = inhibition) at 1uM [%] |
| --- | --- |
| Cc1ccc(C2(C)NC(=O)N(CC(=O)N(C)CC(=O)Nc3cccc(F)c3)C2=O)cc1 (stereo not drawn) | 9.85 |
| Cc1ccc(C(=O)Cc2ccccc2)o1 | 7.75 |
| O=C(Cn1ncc2c(=O)oc3ccccc3c21)N1CCCN(Cc2ccccc2F)C1 | 1.59 |
| O=C(O)C(=O)O.c1cncc(CNCCc2ccc3c(c2)OCO3)c1 | 10.2 |
| O=C(CCCOc1ccccc1)Nc1ncccn1 | 11.7 |
| N#Cc1c[nH]n2c(=O)cc(Cc3ccccc3)nc12 | 12.8 |
| CCC(CC)C(=O)N1CCN(Cc2ccc3c(c2)OCO3)CC1 | -1.34 |
| CC(C)N(C(=O)Cn1cc(S(=O)(=O)CC(=O)Nc2ccccc2)c2ccccc21)C(C)C | 3.55 |
| O=C(CNC(=S)N(Cc1ccccc1Cl)C1CCCC1)NCCCN1CCOCC1 | 7.38 |
| O=C(CCc1nnc(CCCCc2ccccc2)o1)N1CCCC(O)C1 (stereo not drawn) | 4.77 |
| NC(=O)CSc1nnc2ccc(-c3ccc(Cl)cc3)nn12 | 7.54 |
| CCN1CCN(S(=O)(=O)c2ccc(Cl)c(C(=O)NC3CCCCC3)c2)CC1 | -0.482 |
| COc1ccccc1NC(=O)CN(c1ccccc1)S(=O)(=O)c1ccccc1 | 12.8 |
| Cc1ccccc1Nc1ccc([N+](=O)[O-])cn1 | 12.3 |
| CCOC(=O)C1CCN(C(=S)Nc2cccc(C)c2)CC1 | 13.7 |
| Cc1ccc(S(=O)(=O)N(C)C)cc1NC(=O)COC(=O)c1ccc2ccccc2n1 | 7.99 |
| COc1ccc(CC(=O)N/N=C(\C)c2cccs2)cc1OC | 13.7 |
| Cl.Nc1nonc1C(=O)N/N=C/c1cc(Br)ccc1O | 13 |
| COc1ccc(C)cc1NC(=O)C(OC(=O)c1cnc(C)cn1)c1ccccc1 (stereo not drawn) | 10.6 |
| COc1ccc(CCNC(=O)Cc2ccc([N+](=O)[O-])cc2)cc1OC | 5.98 |
| Cc1nc2nc(-c3ccccc3)nn2c(C)c1C | -0.954 |
| Cc1cccn2c(CNC3CCCc4ccccc43)c(C(=O)N3CCCCC3)nc12 (stereo not drawn) | 14.5 |
| COc1ccc(C(C(=O)NCC2CCCO2)N(Cc2cccs2)C(=O)c2snc(C(N)=O)c2N)cc1OC (stereo not drawn) | 22.5 |
| Nc1nc(/C=C/c2cccnc2)nc(-c2ccccc2O)n1 | 10.4 |

| SMILES | hERG current change (%, negative = inhibition) at 1uM [%] |
| --- | --- |
| CCc1nnc(NC(=O)c2ccc(S(=O)(=O)N(CC)CC)cc2)s1 | 17.2 |
| CC(C)Oc1ccc(C(=O)N(CN2CCCC2=O)c2ccc(F)cc2)cc1 | 8.86 |
| CCOC(=O)N1CCN(C(=O)CN(C)S(=O)(=O)c2ccc3c(c2)c(=O)n(C)c(=O)n3C)CC1 | 27 |
| N#Cc1c(N)sc(=S)c2c1CCN(Cc1ccccc1)C2 | -0.674 |
| CC1OC(C[N+](C)(C)C)CC1O.[Cl-] (stereo not drawn) | 6.2 |
| O=C(/C=C/c1ccc(Cl)cc1)NCc1ccco1 | 2.44 |
| COc1ccc2cc3cc(C(=O)NCCN4CCc5ccccc5C4)sc3nc2c1 | -7.5 |
| CC(C)n1c(SCC(=O)Nc2ccccc2)nc2c1c(=O)n(C)c(=O)n2C | 5.81 |
| CCCCN(C(=O)c1ccc(S(=O)(=O)N(C)C)cc1)c1ccccc1 | 5.03 |
| CC(C)c1nc(N2CCN(C(=O)c3ccccc3)CC2)c(C#N)c2c1COC(C)(C)C2 | -6.07 |
| COc1ccc(CNc2nc(=S)[nH]c3cc(OC)c(OC)cc23)cc1 | 9.14 |
| Cc1ccc(N2CC(O)Cn3c2nc2c3c(=O)[nH]c(=O)n2C)cc1 (stereo not drawn) | 10.8 |
| CSC1=NC2(CCCCC2)CC12C=CC(=O)C=C2 | 10.9 |
| Cc1ccnc(NC(=O)CCC(=O)N(CC(=O)NC(C)(C)C)C2CCCC2)c1 | 9.41 |
| COc1ccccc1NC(=S)N1CC(C)(C)C1=O | 4.26 |
| COC(=O)CN1CCN(C(c2ccccc2)c2ccccc2)CC1 | 7.36 |
| C/C(=N\NC(=O)c1cc(-c2ccc(Cl)s2)[nH]n1)c1ccncc1 | 5.8 |
| CCCNC(=O)C1(CC2CC(c3ccccc3)=NO2)CCNCC1 (stereo not drawn) | 12.2 |
| C/C(=N\NC(=O)c1nn(C)cc1Cl)c1ccncc1 | 4.34 |
| Cc1ccc2[nH]c3c(=O)n(Cc4ccco4)cnc3c2c1 | 13.5 |
| CCCN(CCO)CCCc1ccccc1 | 5.56 |
| COc1ccc(Cc2nnc(NC(=O)c3ccco3)s2)cc1 | -5.35 |
| C=CCOc1cccc(C(=O)N2CCCC(Nc3ccc(F)cc3)C2)c1 (stereo not drawn) | -5.03 |
| Cc1nc2c(Br)cc(Br)cc2cc1O | 12.9 |

| SMILES | hERG current change (%, negative = inhibition) at 1uM [%] |
| --- | --- |
| Cc1ccc2nc(N3CCN(S(=O)(=O)c4ccc(C)c(Cl)c4)CC3)c(C#N)cc2c1 | 5.94 |
| O=C(Nc1ccc(Cl)cc1)Nc1cccnc1 | -17.8 |
| CCC(=O)Nc1cc2c(cc1C(=O)CC)OCCO2 | 13.7 |
| CC12CN3CC(C)(CN(C1)C3c1ccc([N+](=O)[O-])o1)C2 (stereo not drawn) | 16.9 |
| Cc1cc(C(=O)N/N=C/c2ccc(-c3ccc([N+](=O)[O-])cc3C)o2)n[nH]1 | 10.5 |
| Cc1ccc(OCC(=O)Nc2ccccc2C(N)=O)cc1 | 11.6 |
| Cc1ccc(S(=O)(=O)N(C)C)cc1NC(=O)COC(=O)C1CC(=O)N(c2ccc3c(c2)OCCO3)C1 (stereo not drawn) | 8.56 |
| CCOCC(=O)Nc1c(C(=O)N2CCN(c3ncccn3)CC2)oc2ccccc12 | 5.42 |
| Oc1ccc(/C=N/NC(=S)N/N=C/c2ccc(O)cc2)cc1 | 14.5 |
| O=C(Nc1ccc(OCc2ccccc2Cl)cc1)c1cccnc1 | 9.12 |
| Cc1nn(-c2ccc(F)cc2)c(N)c1C1(O)C(=O)Nc2ccccc21 (stereo not drawn) | 13 |
| Cc1ccc2c(c1)c1c(n2CC(O)CN2CCCCC2C)CCCC1 (stereo not drawn) | -1.86 |
| CC(C)C(=O)n1nc(-c2cccnc2)nc1NCc1cccs1 | 5.8 |
| Cc1ccc(S(=O)(=O)c2cc3c(=O)n4ccccc4nc3n(CCc3ccccc3)c2=N)cc1 | 6.17 |
| CCN(CC(=O)NCc1cccs1)C(=O)C(c1ccccc1)c1ccccc1 | 3.62 |
| CCOC(=O)c1ccccc1NC(=S)N1CCN(C2CCCCC2)CC1 | -18.8 |
| CCCCOc1ccc(NC(=O)CCSc2nccn2C)cc1 | 7.91 |
| Cc1nc2ccccc2cc1C(=O)Nc1ccccc1Cl | 3.5 |
| COc1ccc(N2C(=O)CC(NCCNc3ccc([N+](=O)[O-])cn3)C2=O)cc1 (stereo not drawn) | -13.7 |
| COc1ccc(-c2nc(N)n(C(=O)c3cccs3)n2)cc1 | 16.6 |
| C/C(=C/c1ccccc1)C(=O)N1CCN(c2ccccc2)CC1 | 8.49 |
| Cl.c1csc(-c2cnc3n2CCCC3)c1 | 9.11 |
| O=S(=O)(NNc1ncc(C(F)(F)F)cc1Cl)c1ccccc1 | 6.1 |
| O=C(COC(=O)c1cnccn1)c1ccc(Cl)c([N+](=O)[O-])c1 | 14.6 |

| SMILES | hERG current change (%, negative = inhibition) at 1uM [%] |
| --- | --- |
| CCOc1ncccc1C(=O)Nc1ccc(C)cn1 | 9.31 |
| CCCCN1C(=O)C2Cc3c([nH]c4ccccc34)CN2C1=S (stereo not drawn) | 11 |
| CCOC(=O)Cn1nc(-c2ccccc2)c(-c2ccccc2)nc1=O | 10.4 |
| CC(C)N(CCCNC(=O)CC1Oc2ccccc2NC1=O)Cc1ccccc1 (stereo not drawn) | -0.508 |
| O=C(NC1=NCCS1)c1ccc([N+](=O)[O-])cc1Cl | 5.24 |
| CC(=O)C(=Cc1cn(-c2ccccc2)nc1-c1ccccc1)C(C)=O | -3.92 |
| Cc1ccc(-c2c[n+](CC(=O)c3ccc(Br)cc3)c3n2CCCCC3)cc1.[Br-] | -0.618 |
| COC(=O)Cn1c2ccc(F)cc2c2nc(C)sc21 | 16 |
| COc1cccc(NC(=O)c2ccc(N3C(=O)C4CC=C(C)CC4C3=O)cc2)c1 (stereo not drawn) | 12.4 |
| CC(=O)N1c2ccc(S(=O)(=O)N3CCC(C(=O)N4CCCCC4)CC3)cc2CC1C (stereo not drawn) | 14.3 |
| Nc1nnc(CC(=O)N2CCCCC2)s1 | 9.17 |
| CCCCC(=O)C1C(=O)NC(=O)NC1=O | 4.58 |
| COc1cccc2c(=O)c3c([nH]c12)OC(C)(C)C3 | 13.7 |
| COCCNc1nc(-c2cc3ccccc3o2)cs1 | 8.37 |
| CCOc1ccc(NC(=O)CSc2nnc(C)n2CCCOC)cc1 | 12.3 |
| CCCCN=C1NN=C(c2ccc3c(c2)OCCO3)CS1 | -0.367 |
| C=CCNC(=O)/C(=C\C=C\c1ccccc1)NC(=O)c1ccc(OCCCC)cc1 | 8.17 |
| CCC1CCC/C1=N\NC(=O)CCC(=O)Nc1ccccc1Cl (stereo not drawn) | 12 |
| Cn1cnnc1SCC(=O)Nc1sccc1C#N | 5.3 |
| Cc1cc(C(=O)Nc2ccc3c(c2)OCCO3)nn1C(C)(C)C | 7.95 |
| COCCOC(=O)c1c(C)n(C)c2ccc(OC(=O)c3ccco3)cc12 | -3.05 |
